Reference: PMC7144022, “Quinolinecarboxamides Inhibit the Replication of the Bovine Viral Diarrhea Virus by Targeting a Hot Spot for the Inhibition of Pestivirus Replication in the RNA-Dependent RNA Polymerase” (Molecules, 2020)

Test system: BVDV-1 (strain NADL)
Test: Infectious virus yield in culture supernatant
Settings: Bovine viral diarrhea virus isolates and strains, MDBK, read-out: EC50 for inhibition of infectious virus yield in the culture supernatant

**Q.** How did the EC50 turn out when `Cc1ccc2nc(NC(=O)c3cc(-c4ccco4)nc4ccccc34)sc2c1` [TO505-6180, 2-(2-furanyl)-N-(6-methyl-2-benzothiazolyl)-4-Quinolinecarboxamide] was run?
**A.** Its EC50 is 600 nM.

**Q.** `O=C(Nc1ccn(-c2ccccc2)n1)c1cc(-c2ccccc2)nc2ccccc12` [TO502-2403, 2-phenyl-N-(1-phenyl-1H-pyrazol-3-yl)-4-Quinolinecarboxamide] was tested. Which EC50 did it give?
**A.** Its EC50 is 200 nM.
